Results taken from ChEMBL document CHEMBL1156829.
The full ranking holds about 5,400 compounds; the median of “IFI” is about 2, and the highest 2% start at about 22. This is one part of the list.

Assay: NOVARTIS: Inhibition Frequency Index (IFI) - the number of HTS assays where a compound showed > 50% inhibition/induction, expressed as a percentage of the number of assays in which the compound was tested.
Type: functional

Compound	IFI [%]
Cc1ccccc1[S+]([O-])Cc1ccc(C(=O)N2CCN(c3ccccn3)CC2)o1 (stereo not given)	0
CCC(CC)CN1CCC(O)(c2ccc3oc(C(=O)Nc4ccc(OC)cc4)cc3c2)CC1	1.7
COc1ccc2cc(CNC3CCN(Cc4ccccc4)CC3)c(=O)[nH]c2c1	3.77
COc1ccc(OC(C)=O)c(C=NNC(=O)C(C)Oc2ccccc2Br)c1 (stereo not given)	0
COc1ccc(C2=C(c3ccc(OC)cc3)C3(c4ccccc4)C(=O)C2(c2ccccc2)C2C(=O)N(c4ccc(C)c(Br)c4)C(=O)C23)cc1 (stereo not given)	0
O=[N+]([O-])c1ccc(N2CCN(c3nc(NCCc4c[nH]c5ccccc45)c4ccccc4n3)CC2)cc1	6.17
FC(F)(F)COc1ccc(OCC(F)(F)F)c(-c2ncnn2-c2ccccc2)c1	1.28
CC(C)CNC(=O)c1cnc(NCCC2CCCN2C)nc1NC1CCCC1 (stereo not given)	1.91
Cc1ccc(S(=O)(=O)Nc2nc3n(n2)C(c2ccccc2)C=C(c2ccccc2)N3)cc1 (stereo not given)	2.25
CCc1cccc(NS(=O)(=O)c2ccc3[nH]c(=O)c(=O)[nH]c3c2)c1	0
Cc1ccc(NC(=O)N(CCCN(C)C)Cc2cc3cc4c(cc3[nH]c2=O)OCO4)cc1	0
O=C1NCCCCC1N(Cc1cccc(Oc2ccccc2)c1)C(=O)c1ccc(F)cc1 (stereo not given)	0
COC(=O)C1=C(C)Nc2[nH]c(=S)[nH]c(=O)c2C1c1ccccc1F (stereo not given)	0
Cc1ccc(-c2nc3ncccc3o2)cc1NC(=O)COc1ccc(C(C)(C)C)cc1	2.38
Cc1ccc(Nc2nc(NCc3ccco3)c3ccccc3n2)cc1	7.14
CCN(CC)CCCN(Cc1cc2cc(OC)c(OC)cc2[nH]c1=O)C(=S)Nc1cccc(Cl)c1	14.4
CCOc1ccccc1-n1c(C(C)N(Cc2ccccc2)C(=O)Nc2cccc3ccccc23)nc2ccccc2c1=O (stereo not given)	1.89
CCn1c(SCc2ccc([N+](=O)[O-])cc2)nc2sc3c(c2c1=O)CCN(C)C3	4.17
O=C(COc1cccc2ccccc12)NC1CCS(=O)(=O)C1 (stereo not given)	0
CCCCCCOC(=O)C1=C(C)NC(=O)NC1c1ccccc1F (stereo not given)	0.714
COC(=O)[C@@H]1C[C@H](NC(=O)c2[nH]c3ccc(Cl)cc3c2-c2ccccc2)CN1Cc1cc(OC)cc(OC)c1	1.77
Cc1ccn2c(NC(C)(C)CC(C)(C)C)c(-c3ccccc3OC(=O)c3ccccc3C)nc2c1	3.81
COC(=O)[C@@H]1C[C@@H](NC(=O)c2ccccc2F)CN1CC(c1ccccc1)c1ccccc1	2.68
O=C1C2C3c4ccccc4C(c4ccccc43)C2C(=O)N1CCO (stereo not given)	0

Compound	IFI [%]
CCN(CC)CCCNC(=S)N(CCN(CC)CC)Cc1cc2ccc(C)c(C)c2[nH]c1=O	2.1
CN(Cc1ccccc1)C(=O)CCNS(=O)(=O)c1cc(Br)cnc1N	0
O=[N+]([O-])c1cccc(CNc2ccc(F)c(Cl)c2)c1	0
COc1cc(/C=C(\C#N)c2nc3ccccc3[nH]2)ccc1OCc1ccc(C)cc1	5.18
CCCCN1C(=Cc2cccc[n+]2C)Sc2cc(NC(C)=O)ccc21	7.69
CN(C)CCNc1ncnc2c1[nH]c1ccc(Br)cc12	13.7
C=CC1CC23CC(C(OC(=O)CCC(=O)O)c4ccnc5ccc(OC)cc45)N2CCC13 (stereo not given)	5.46
COc1ccc(OC)c(NC(=O)c2cnn3c(C(F)(F)F)cc(-c4ccc(OC)c(OC)c4)nc23)c1	2.38
Cc1ccn(C(=O)NCCNC(=O)Nc2ccc(Cc3ccc(NC(=O)NCCNC(=O)n4ccc(C)n4)cc3)cc2)n1	0
CCOc1cccc2c1N(C(=O)c1cccc([N+](=O)[O-])c1)C(C)(C)C(=S)C2=C1SC(C(=O)OC)=C(C(=O)OC)S1	0
CS(=O)(=O)N1CCCCC1C(=O)NCc1ccc(OC2CCN(CC(c3ccccc3)c3ccccc3)CC2)cc1 (stereo not given)	2.86
CS(=O)(=O)N(CCc1ccccc1)CC(O)CN1CCC(CNC(=O)NC(c2ccccc2)c2ccccc2)CC1 (stereo not given)	2.91
O=C(Nc1c(C(=O)Nc2cccc(Cl)c2)oc2ccccc12)c1cc(-c2ccccc2O)n[nH]1	0
CCCCCCCCOC(=O)NCCCCCCNC(=O)OCCCCCCCC	5.88
Clc1cccc(CSc2nc(Nc3ccc4c(c3)OCO4)c3ccccc3n2)c1	0
CCOC(=O)c1ccc(NC(=O)CSc2nc(NCc3ccccc3)c3ccccc3n2)cc1	0
N#Cc1cc(-c2cccc(C(F)(F)F)c2)cn(Cc2c(Cl)cccc2Cl)c1=O	5.26
COc1ccc(CN2C[C@H](Sc3nc4ccccc4[nH]3)C[C@H]2C(=O)NC2CC2)cc1C	14.4
CSC1=C(C#N)C(c2ccc(O)cc2)CC(=O)N1 (stereo not given)	0.741
CCc1nc(N)nc(N)c1-c1ccccc1	0
COc1cccc(/C=C2/SC(=Nc3ccccc3)NC2=O)c1OC	4.54
CCn1cc(C(=O)N2CCC(C(=O)c3nccs3)CC2)c(C)n1	0
OCc1nc2ccccc2n1CCOc1ccccc1	0.794
COc1ccc2nc(-c3ccccc3)cc(NCCN(C)C)c2c1	3.51

Compound	IFI [%]
CCOC(=O)COC1=C(CCCCC2CCCCC2)C(=O)c2ccccc2C1=O	2.27
COc1ccc2nc(NC(=O)c3ccc(C#N)cc3)sc2c1	1.02
CN(C)c1ccc(/C=C2/SC(=Nc3ccccc3)NC2=O)cc1	3.45
CCOC(=O)C1=C(CC)NC2=C(C(=O)CC(C)(C)C2)C1c1ccccc1F (stereo not given)	4.6
COc1cc(CN(CCCN2CCOCC2)C(=O)Nc2cccc(C)c2)ccc1OCc1ccccc1	1.77
CC(C)N(CC(=O)Nc1cc(C(C)(C)C)nn1-c1ccc(Cl)c(Cl)c1)C(=O)c1ccc(Cl)c(Cl)c1	1.85
Cc1ccc(-c2cc(C(=O)OCC(=O)c3cccc([N+](=O)[O-])c3)c3cc(C)ccc3n2)cc1	0
CN(CCCNc1ccnc2cc(Cl)ccc12)C(=O)c1ccc(Cl)cc1	6.48
CCOc1ccc(-c2cc(C)[n+](CCO)c(-c3ccc(OCC)cc3)c2)cc1	7.27
COc1ccc(C2C(C(=O)Nc3cccc(Cl)c3)c3ccccc3C(=O)N2C2CCCCC2)cc1 (stereo not given)	0
CCOC(=O)C1=C(C)NC2=C(C(=O)C(C(=O)OCC)C(c3cccc(OC)c3)C2)C1c1ccc([N+](=O)[O-])cc1 (stereo not given)	1.16
CCOC(=O)c1ccc(N(C(=O)Cc2c[nH]c3ccccc23)C(C(=O)NC2CCCCC2)c2cccnc2)cc1 (stereo not given)	3.7
CC1C/C(=C/c2ccncc2)C(=O)/C(=C/c2ccncc2)C1 (stereo not given)	33.3
CCOC(=O)c1cnc2ccc(OC)cc2c1Nc1ccc(N2CCN(C)CC2)cc1	1.41
O=C(Nc1ccc(Oc2cccc(Oc3ccc(NC(=O)c4ccc(Br)o4)cc3)c2)cc1)c1ccc(Br)o1	0
Cc1ccc(C2CC(C(F)(F)F)n3ncc(C(=O)Nc4ccc(Cl)cc4)c3N2)cc1 (stereo not given)	0
C=CCNC(=O)c1ccc2c(c1)N=C(c1ccc(F)cc1)N(CCCC)C2	1.22
CCN(CC)C/C=C/C1(O)c2ccccc2-c2ccccc21	0
Cc1cccc(NC(c2cccc(F)c2)c2ccc3cccnc3c2O)n1 (stereo not given)	0
CCN(CC)CCCNC(=S)N(CCN(C)C)Cc1cc2cc(C)cc(C)c2[nH]c1=O	3.39
CCc1ccc2[nH]c(=O)c(CN(CCN(CC)CC)C(=S)NCCCN(CC)CC)cc2c1	4.63
O=[N+]([O-])c1ccc(NCCNc2nc(N3CCCC3)nc3ccccc23)cc1	0
c1ccc(N=c2sc(-c3ccccc3)cn2CCCCCCn2cc(-c3ccccc3)sc2=Nc2ccccc2)cc1	0
CC1(C)Cc2c(oc3ncn(CCn4cnc5oc6c(c5c4=N)CC(C)(C)SC6)c(=N)c23)CS1	0

Compound	IFI [%]
CC1=C(C(=O)OC2CCCCC2)C(c2ccc(F)c(F)c2)C2=C(CCCC2=O)N1 (stereo not given)	2.35
CC1CCC2C(C)C(O)OC3OC4(C)CCC1C32OO4 (stereo not given)	7.55
O=C(N/C(=C/C=C/c1ccccc1)C(=O)N1CCCCC1)c1ccc([N+](=O)[O-])cc1	0.685
CN1CCN(CCCNc2ccnc3cc4ccccc4cc23)CC1	18.8
c1ccc(Nc2nc(NCC3CCCO3)c3ccccc3n2)cc1 (stereo not given)	0
O=C1C(O)=CC(=Nc2ccc(Cc3ccncc3)cc2)c2ccccc21	7.14
CC(=O)Nc1ccc2nc(C)sc2c1	0
OCCNCCNCc1ccc2[nH]c3ccccc3c2c1	0
Cc1nc2c(c(C)nn2C)c(C)c1CCC(=O)N1CCCC1	5.56
COc1ccc(C2CC(=O)C3=C(C2)NC(C)=C(C(=O)OC(C)C)C3c2ccccc2Br)cc1OC (stereo not given)	3.53
Nc1ccc2nc3ccc(N)cc3[s+]c2c1	9.09
CCCCCCCCC(=O)NCCCCNc1ccnc2cc(Cl)ccc12	2.86
C=CCOc1cccc(/C=C2/NC(C)=C(C(=O)OCC)C2=O)c1	0
CCOC(=O)c1cnc2c(C)cc(Cl)cc2c1Nc1ccc(OC)c(OC)c1	0
COc1cc2ncnc(NC3CCN(Cc4ccccc4)CC3)c2cc1OC	2.4
CCCN1CCC(N2C[C@@H](NCc3ccc4c(c3)c3ccccc3n4CC)C[C@H]2C(=O)NCC)CC1	4.9
COc1ccc(-c2cc(-c3ccccc3)nc(SCC(=O)N3c4ccccc4Sc4ccc(Cl)cc43)c2C#N)cc1	0
CC(C)NC(=O)N1CCN(C(=O)C(Cc2c[nH]c3ccccc23)NC(=O)Nc2cccc(Cl)c2Cl)CC1C (stereo not given)	1.89
CC(C)N1CCCc2cc(CN3CCC(n4cc(C(=O)NCCCO)nn4)CC3)ccc21	2.61
CCCOC(=O)C1=C(C)NC2=C(C(=O)CC(c3ccc(OC)c(OC)c3)C2)C1c1ccccc1Br (stereo not given)	3.57
c1ccc(N=Nc2nnc(Nc3ccccc3)s2)cc1	0
CCN1/C(=C/c2cccc[n+]2C)C=Cc2ccccc21	8.33
CN(c1ccc(Br)cc1)S(=O)(=O)c1ccc2[nH]cc(C(=O)N3CCN(c4ccccc4)CC3)c(=O)c2c1	5.13
